The supplement of paper PMC12217912
Some of the results follow. Sequences were assembled here from the parent chain. Inactive controls read about 0.05.

B1: TEV protease; numbered along this chain (parent)
chain: MGESLFKGPRDYNPISSSICHLTNESDGHTTSLYGIGFGPFIITNKHLFRRNNGTLVVQSLHGVFKVKDTTTLQQHLVDGRDMIIIRMPKDFPPFPQKLKFREPQREERICLVTTNFQTKSMSSMVSDTSCTFPSGDGIFWKHWIQTKDGQCGSPLVSTRDGFIVGIHSASNFTNTNNYFTSVPKNFMELLTNQEAQQWVSGWRLNADSVLWGGHKVFMVKPEEPFQPVKEATQL

Variants of: B1
Experiment: raw area under fraction-flipped curve 0-4 h after induction (AUC4h, not background-subtracted), DNA-recorder readout of cleavage of the substrate (dimensionless); higher = more cleavage of the substrate by the protease variant
Conditions: temperature: 34 °C; time window: 0-4 h after rhamnose induction
Experimental: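 In vivo DNA recorder in E. coli TOP10(DE3) ΔrhaA at 34 °C. Each TEVp single-site mutant (parent TEVp 0) is paired with a single-site variant of the 7-mer TEVs (canonical ENLYFQ|S). The substrate sits between flexible linkers in a Bxb1-sfGFP-TEVs-SsrA fusion, so cleavage stabilises Bxb1 and speeds flipping of a recombination array, read by NGS. The value is the raw area under the fraction-flipped curve over 0-4 h after rhamnose induction (AUC4h), with ≥20 reads per time point. It is not background-subtracted; inactive controls average about 0.047.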
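Note: Bxb1 expression induced with 0.2% (w/v) L-rhamnose at OD600 near 0.5, cultures sampled hourly, flipped fraction per protease–substrate barcode pair counted by paired-end Illumina sequencing.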

Variant	area with substrate ENLYFAS	area with substrate ENLYFCS	area with substrate ENLYFES	area with substrate ENLYFFS	area with substrate ENLYFHS	area with substrate ENLYFIS	area with substrate ENLYFMS	area with substrate ENLYFNS	area with substrate ENLYFPS	area with substrate ENLYFRS	area with substrate ENLYFSS	area with substrate ENLYFYS	area with substrate ENLYFDS	area with substrate ENLYFLS	area with substrate ENLYFTS	area with substrate ENLYFVS	area with substrate ENLYFWS	area with substrate ENLYFGS	area with substrate ENLYFKS
MGESLFKGPRDYNPISSSICHLTNESDGHTTSLYGIGFGPFIITNKHLFRRNNGTLVVQSLHGVFKVKDTTTLQQHLVDGRDMIIIRMPKDFPPFPQSLKFREPQREERICLVTTNFQTKSMSSMVSDTSCTFPSGDGIFWKHWIQTKDGQCGSPLVSTRDGFIVGIHSASNFTNTNNYFTSVPKNFMELLTNQEAQQWVSGWRLNADSVLWGGHKVFMVKPEEPFQPVKEATQL [K98S]	0.0563	0.055	0.0594	0.0618	0.0722	0.0552	0.0682	0.0741	0.0574	0.0721	0.0526	0.0402							
MGESLFKGPRDYNPISSSICHLTNESDGHTTSLYGIGFGPFIITNKHLFRRNNGTLVVQSLHGVFKVKDTTTLQQHLVDGRDMIIIRMPKDFPPFPQKRKFREPQREERICLVTTNFQTKSMSSMVSDTSCTFPSGDGIFWKHWIQTKDGQCGSPLVSTRDGFIVGIHSASNFTNTNNYFTSVPKNFMELLTNQEAQQWVSGWRLNADSVLWGGHKVFMVKPEEPFQPVKEATQL [L99R]	0.0723	0.0997	0.0612	0.0584		0.0749	0.0713	0.0858	0.0714				0.0828	0.0516	0.0823	0.0659	0.066		
MGESLFKGPRDYNPISSSICHLTNESDGHTTSLYGIGFGPFIITNKHLFRRNNGTLVVQSLHGVFKVKDTTTLQQHLVDGRDMIIIRMPKDFPPFPQKLGFREPQREERICLVTTNFQTKSMSSMVSDTSCTFPSGDGIFWKHWIQTKDGQCGSPLVSTRDGFIVGIHSASNFTNTNNYFTSVPKNFMELLTNQEAQQWVSGWRLNADSVLWGGHKVFMVKPEEPFQPVKEATQL [K100G]	0.0577	0.0562	0.0498	0.0588	0.0593	0.0543	0.0552	0.0526	0.0656	0.0698	0.063		0.0639	0.0606	0.058	0.0536	0.0587	0.0682	0.0628
MGESLFKGPRDYNPISSSICHLTNESDGHTTSLYGIGFGPFIITNKHLFRRNNGTLVVQSLHGVFKVKDTTTLQQHLVDGRDMIIIRMPKDFPPFPQKLKFRTPQREERICLVTTNFQTKSMSSMVSDTSCTFPSGDGIFWKHWIQTKDGQCGSPLVSTRDGFIVGIHSASNFTNTNNYFTSVPKNFMELLTNQEAQQWVSGWRLNADSVLWGGHKVFMVKPEEPFQPVKEATQL [E103T]	0.0705	0.0541	0.0537	0.0769		0.0476		0.0636	0.0508		0.0729		0.0778					0.0466	0.0573
MGESLFKGPRDYNPISSSICHLTNESDGHTTSLYGIGFGPFIITNKHLFRRNNGTLVVQSLHGVFKVKDTTTLQQHLVDGRDMIIIRMPKDFPPFPQKLKFREPIREERICLVTTNFQTKSMSSMVSDTSCTFPSGDGIFWKHWIQTKDGQCGSPLVSTRDGFIVGIHSASNFTNTNNYFTSVPKNFMELLTNQEAQQWVSGWRLNADSVLWGGHKVFMVKPEEPFQPVKEATQL [Q105I]	0.0662	0.0762	0.064	0.0601	0.0614	0.0621	0.0703		0.0593	0.0512	0.104	0.058	0.063			0.0604	0.054	0.0494	
MGESLFKGPRDYNPISSSICHLTNESDGHTTSLYGIGFGPFIITNKHLFRRNNGTLVVQSLHGVFKVKDTTTLQQHLVDGRDMIIIRMPKDFPPFPQKLKFREPLREERICLVTTNFQTKSMSSMVSDTSCTFPSGDGIFWKHWIQTKDGQCGSPLVSTRDGFIVGIHSASNFTNTNNYFTSVPKNFMELLTNQEAQQWVSGWRLNADSVLWGGHKVFMVKPEEPFQPVKEATQL [Q105L]	0.0518	0.0482	0.0812	0.0664	0.0398	0.0763	0.0773	0.0716	0.0764	0.0673	0.0596								
MGESLFKGPRDYNPISSSICHLTNESDGHTTSLYGIGFGPFIITNKHLFRRNNGTLVVQSLHGVFKVKDTTTLQQHLVDGRDMIIIRMPKDFPPFPQKLKFREPQSEERICLVTTNFQTKSMSSMVSDTSCTFPSGDGIFWKHWIQTKDGQCGSPLVSTRDGFIVGIHSASNFTNTNNYFTSVPKNFMELLTNQEAQQWVSGWRLNADSVLWGGHKVFMVKPEEPFQPVKEATQL [R106S]	0.0676	0.0709	0.0669	0.0705	0.0702	0.0654	0.0511	0.0724	0.0642		0.0847	0.0596	0.0603	0.0654	0.0648	0.0709		0.0546	0.0548
MGESLFKGPRDYNPISSSICHLTNESDGHTTSLYGIGFGPFIITNKHLFRRNNGTLVVQSLHGVFKVKDTTTLQQHLVDGRDMIIIRMPKDFPPFPQKLKFREPQREELICLVTTNFQTKSMSSMVSDTSCTFPSGDGIFWKHWIQTKDGQCGSPLVSTRDGFIVGIHSASNFTNTNNYFTSVPKNFMELLTNQEAQQWVSGWRLNADSVLWGGHKVFMVKPEEPFQPVKEATQL [R109L]	0.0564	0.0622		0.0629		0.0517	0.0797	0.0662	0.0571			0.0537	0.058		0.07	0.0511	0.0592		0.0614
MGESLFKGPRDYNPISSSICHLTNESDGHTTSLYGIGFGPFIITNKHLFRRNNGTLVVQSLHGVFKVKDTTTLQQHLVDGRDMIIIRMPKDFPPFPQKLKFREPQREERKCLVTTNFQTKSMSSMVSDTSCTFPSGDGIFWKHWIQTKDGQCGSPLVSTRDGFIVGIHSASNFTNTNNYFTSVPKNFMELLTNQEAQQWVSGWRLNADSVLWGGHKVFMVKPEEPFQPVKEATQL [I110K]	0.0354	0.0604	0.066	0.07	0.0479	0.0534	0.0683	0.0567	0.0616	0.0409		0.059	0.0533	0.0683	0.0665	0.0537			0.0483
